# Assay results: the supplement of paper PMC10441789
# Some of the results follow. Antibody binding of pooled human sera (four to six donors per pool; dilution not stated) to peptides of the Trypanosoma cruzi antigen TSSA on microarrays. Quantile-normalised fluorescence in arbitrary units, mean of duplicate arrays; higher = more binding. No active / inactive call. The uninfected pools are read here as the healthy donors of the same country. The strongest signals lie near the top of the scale (about 60,000).
# Key:
# Test in all cases: antibody binding signal (normalised fluorescence) (arbitrary fluorescence units); higher = stronger serum antibody binding to peptide
# [1] = tested on: pooled sera of chronic Chagas disease patients, Argentina
# Protocol: (§1)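 Microarray of 15-residue peptides over residues 30-55 of Trypanosoma cruzi TSSAII, each with 1 to 10 substitutions at naturally variable positions, probed with one serum pool per country.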
# [2] = tested on: pooled sera of chronic Chagas disease patients, Bolivia
# Protocol: as §1
# [3] = tested on: pooled sera of chronic Chagas disease patients, Brazil
# Protocol: as §1
# [4] = tested on: pooled sera of chronic Chagas disease patients, Colombia
# Protocol: as §1
# [5] = tested on: pooled sera of chronic Chagas disease patients, Mexico
# Protocol: as §1
# [6] = tested on: pooled sera of chronic Chagas disease patients, USA
# Protocol: as §1
# [7] = tested on: pooled sera of uninfected people, Argentina
# Protocol: as §1
# [8] = tested on: pooled sera of uninfected people, Bolivia
# Protocol: as §1
# [9] = tested on: pooled sera of uninfected people, Brazil
# Protocol: as §1
# [10] = tested on: pooled sera of uninfected people, Colombia
# Protocol: as §1
# [11] = tested on: pooled sera of uninfected people, Mexico
# Protocol: as §1
# [12] = tested on: pooled sera of uninfected people, USA
# Protocol: as §1
Sequence,antibody binding signal [1],antibody binding signal [2],antibody binding signal [3],antibody binding signal [4],antibody binding signal [5],antibody binding signal [6],antibody binding signal [7],antibody binding signal [8],antibody binding signal [9],antibody binding signal [10],antibody binding signal [11],antibody binding signal [12]
SGTDKKAAAGEAPSQ,390,10400,13400,4120,452,11000,119,164,169,209,883,125
ENKTAAGEAPSPPGA,271,1020,7630,285,365,7540,146,121,214,168,97.9,178
TEKKTATGGTPSQSG,1220,441,1050,4680,912,2320,490,142,434,1110,518,225
TPPSGKDNKPAAGGA,3450,1300,25200,1390,23400,14700,1410,983,200,203,205,238
ENKPATGEAPSQSGA,50800,47600,49900,325,638,48700,1120,848,350,145,226,208
TISTPPSGTDKKPAT,38100,11900,44600,11000,51300,8110,663,183,354,362,5010,449
NKAAAGEAPSPSGAS,378,2620,18200,291,349,11200,485,852,465,329,301,892
GTDKKPAAGEAPSQP,6760,16400,38600,6960,510,15100,140,260,173,139,583,166
KAATGETPSPSGASS,1340,1080,12800,238,2500,7700,239,235,170,166,147,991
TDNKAAAGGAPSQPG,406,2460,13100,2250,294,222,382,247,238,211,153,183
NKTATGGAPSQSGAS,1280,358,2350,501,791,577,746,872,304,247,402,1090
KTAAGGAPSPSGASS,178,246,298,7400,2590,306,271,119,144,111,95.7,228
GTDKKPATGGAPSQP,1480,1130,17700,6290,2570,1700,296,776,174,163,667,214
GKDNKAATGGAPSPP,707,232,768,1150,1450,1760,232,243,96.6,148,84.3,85.5
TPPSGKENKTATGGA,25600,1140,3690,669,3880,2670,2720,1040,188,573,263,286
GTENKAATGETPSPS,33500,10200,17400,908,1100,11900,163,394,173,175,452,2560
DKKTAAGGAPSQSGA,401,334,215,5120,582,415,176,141,167,171,329,124
KENKPAAGGAPSQSG,170,209,2200,675,349,285,189,148,138,93.3,88.3,120
PSGTDNKAAAGEAPS,18800,11400,44400,838,400,8490,148,689,1160,226,193,175
EKKTAAGETPSPPGA,346,297,336,511,380,4290,152,1240,141,540,281,1460
ENKTAAGGTPSQPGA,1420,1850,982,6900,435,2180,438,206,1520,375,3160,225
GKDKKAATGGAPSQS,911,290,327,1090,2000,1140,220,124,154,230,103,166
GKDKKTAAGETPSPP,321,251,230,485,564,1220,156,109,90.6,223,91.5,176
EKKAATGGTPSPPGA,757,659,542,1760,1100,1160,303,974,973,1470,188,836
TPPSGKDKKPATGEA,31400,4260,16600,241,53000,11500,582,671,142,346,165,231

Sequence,antibody binding signal [1],antibody binding signal [2],antibody binding signal [3],antibody binding signal [4],antibody binding signal [5],antibody binding signal [6],antibody binding signal [7],antibody binding signal [8],antibody binding signal [9],antibody binding signal [10],antibody binding signal [11],antibody binding signal [12]
EKKTAAGGTPSPPGA,495,265,260,9960,458,1980,143,728,908,301,156,768
GTENKTAAGGAPSQP,35100,1470,4900,4980,1840,1500,369,543,338,243,412,158
SGTENKAATGGTPSP,42600,13900,18700,745,767,5180,533,378,194,381,164,108
GTDKKAATGETPSPP,1100,1570,15400,2110,513,11900,496,302,236,543,320,823
KENKPATGEAPSPPG,45100,38800,48100,311,603,37300,926,744,301,232,240,165
GTDKKTATGGAPSQS,832,275,501,2590,1010,669,294,278,106,94.7,141,152
KKPAAGGTPSPSGAS,195,243,371,1640,185,439,278,219,653,136,80.6,283
SGTEKKPATGGAPSQ,8300,591,7140,2130,3340,2930,458,1790,626,208,264,923
PSGTDNKTATGEAPS,20300,38000,44500,282,256,21300,162,487,898,232,137,188
STPPSGKEKKTATGG,15400,299,479,2960,12200,1030,299,236,103,224,109,159
TPPSGKDKKAAAGET,3470,569,709,451,39700,1170,185,538,103,197,145,96.2
DNKAAAGEAPSPSGA,323,617,14500,167,210,10700,152,244,318,176,303,153
TDKKAATGGTPSPSG,1400,874,342,2190,625,1170,245,107,693,1160,119,176
TDNKTATGGAPSQSG,445,766,844,454,380,302,324,326,355,160,498,154
GTDNKPAAGGTPSQP,4280,1090,42600,2070,314,356,236,738,1260,431,831,114
KDKKAAAGETPSQSG,162,272,916,191,152,415,124,89.6,86.5,136,89.5,107
GTDNKPATGETPSPP,37100,31900,40400,1350,305,26400,257,752,349,158,1740,594
TEKKAAAGGAPSQSG,1780,185,343,6330,843,1210,204,139,503,154,203,240
SGKENKPAAGETPSQ,2470,4010,24800,3440,4570,15500,9210,4970,187,421,719,205
ENKAATGEAPSPPGA,24300,41800,38300,262,217,28100,191,145,126,129,105,125
PSGKDKKPAAGETPS,3930,953,4250,6300,5510,5540,161,473,93.6,235,75.7,77.8
KKTAAGGTPSQPGAS,230,357,211,4380,261,1420,355,165,404,249,279,243
ENKAAAGETPSQPGA,1770,4750,35700,219,158,3390,112,715,165,289,270,147
GKEKKAATGEAPSPP,18500,14000,20600,8290,8670,19000,237,82.9,93.3,191,73.6,131
PPSGKEKKPATGGAP,1610,433,1780,1070,9890,2020,491,1030,104,275,102,244
